The values that follow come from PubChem BioAssay (NCI).

SMILES strings stand for the structures. Values joined by “and” are separate entries in the source; they are usually repeats but may differ in a detail not shown here. Identical values can stand only once.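 Exposure lasted 48 hours, with cells grown in 96-well plates and compounds tested at five concentrations. GI50 is the concentration that inhibits growth by half. TGI marks complete inhibition of growth.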 Square brackets hold non-standard residues; d marks the D form. Peptide text beside a SMILES is read from it. * marks the point of attachment. Boc = CC(C)(C)OC(=O)*; Lac = C[CH](O)C(=O)O; OBn = c1ccc(CO*)cc1 A value given as a limit tells only on which side of the number the result lay.

The experiment has as its system NCI-H322M lung. As to the kind of experiment: NCI tumour cell line growth inhibition, 48 h.
For `COc1cc2c(c(OC)c1O)-c1ccc(SC)c(=O)cc1C(NC(C)=O)CC2` (stereo not given), the TGI is greater than 15.1 µM.
`COc1cc2nc(-c3ccc(C(F)(F)F)cc3)cc(OCCCN3CCC(O)CC3)c2cc1OC`: the GI50 is 10.2 µM and the TGI amounted to 22.3 µM.
Turning to `CC1=CC(=O)[C@@H](O)[C@]2(C)[C@H]3[C@@]4(O)OC[C@]35[C@H]([C@@H](C)[C@H]4O)[C@@H](OC(=O)C(C)(C)CO)C(=O)O[C@@H]5C[C@@H]12`, the TGI was 56.2 µM.
`O=C(O)CCSC(=O)Nc1cccc(F)c1` showed a TGI greater than 100 µM.
For `COc1ccc(N2CN3OC(=O)N(c4ccc(OC)cc4)[C@@]3(c3ccccc3)C2)cc1`, the TGI was greater than 100 µM.
In the case of `COc1cccc(-c2nc3ccccc3c(=O)[nH]2)c1`, the TGI was determined as 39.1 µM.
In turn, `Cc1ccc(-c2n[nH]c(Cc3nc(-c4ccc(C)cc4)n[nH]3)n2)cc1` yielded a TGI greater than 100 µM.
Compound `O=C(C1OC1c1ccc(Cl)cc1)C12CC3CC(CC(C3)C1)C2` (stereo not given) gave a TGI of 47.8 µM.
Regarding `COc1ccc2nc3cc(Cl)ccc3c(Sc3ccccc3[N+](=O)[O-])c2c1`, the TGI is greater than 100 µM.
`O=C1/C(=C/c2ccc([N+](=O)[O-])cc2)COc2ccc(O)c(O)c21`: the GI50 is 1.49 µM and the TGI was determined as 3.4 µM.
Turning to `Cc1ccc(S(=O)(=O)NC(=O)NC(CC(N)=O)C(=O)O)cc1` (stereo not given), the TGI was greater than 100 µM.
The compound `CCCCS(=O)(=O)CCC(N)P(=O)(O)O` (stereo not given) returned a TGI greater than 100 µM.
With `O=C(NCCNc1nccc(-c2c(-c3cccc(O)c3)nc3sccn23)n1)c1ccccc1O`, the GI50 is 9.4 µM and the TGI was determined as 48.7 µM.
Take `Cc1nc2c(nc1C)C(=O)c1ccccc1C2=O`: the TGI was 4.89 µM.
With `CC1=C(C(=O)Nc2ccc(F)c(Cl)c2)C(c2ccc(Cl)cc2)NC(=O)N1` (stereo not given), the GI50 is 19.9 µM and the TGI is 43.5 µM.
`Cc1cc(=O)[nH]c(NNC(C#N)c2cccc(O)c2)n1` (stereo not given) registered a TGI greater than 100 µM.
With `CO[C@]1(c2ccc([N+](=O)[O-])cc2)Oc2ccccc2C(=O)[C@@]1(Nc1ccc(C=O)cc1)OC`, the TGI was greater than 10 µM.
Still for that read-out and setting: the result for `N#CC(C#N)=c1ccc(=C2NCC3CCCN23)cc1` (stereo not given) reads greater than 100 µM; that for `CC1=C(C(=O)Nc2ccccc2C)C(c2ccco2)C(C(=O)Nc2ccccc2C)=C(C)N1C`, greater than 100 µM; that for `CC(=O)OC(C)C(=O)C1c2cccc(O)c2C(=O)c2c(O)cc(C)cc21` (stereo not given), 1.47 µM.
Turning to `CCCN(CCC)CCc1ccc(OC2=CCN(C)CC2)cc1`, the TGI is greater than 100 µM.
Compound `Cc1ccc2c(c1)[nH]c(=S)n2C=C(C(N)=O)C(N)=O` gave a TGI greater than 100 µM.
`NC(CCc1nc(-c2ccc(Cl)cc2)cs1)C(=O)O` (stereo not given) displayed a TGI greater than 100 µM.
As for `COc1c2ccoc2c(/C=C/C=O)c2oc(-c3ccccc3)cc(=O)c12`, the GI50 was 9.69 µM and the TGI is greater than 100 µM.
The compound `COc1cccc(NC(=O)CC(=O)n2nc(C)c(N=Nc3ccccc3)c2C)c1` displayed a TGI greater than 100 µM.
As to `Cc1cc(=O)n2[nH]c(-c3ccc(C(C)(C)C)cc3)cc2n1`, the GI50 is 18.7 µM and the TGI is greater than 100 µM.
The compound `CC(=O)N1[C@H](C(=O)O)CS[C@H]1c1ccncc1` displayed a TGI greater than 100 µM.
Still for that read-out and setting: the result for `COc1ccccc1CCN1CCN(CCCc2ccccc2)CC1` reads greater than 100 µM.
In turn, `CN1Cc2ccccc2S(=O)(=O)n2cccc2C1=O` returned a TGI greater than 100 µM.
As for `COc1ccc(/C=C\c2cc(OC)c3c(c2)OCO3)c(O)c1O`, the TGI is greater than 65.2 µM.
As for `COc1ccc2c(c1)C(=O)/C(=C/c1ccc(OCC(=O)Nc3nccs3)cc1)O2`, the GI50 was 38.8 µM and the TGI was greater than 100 µM.
In the case of `COc1ccc(C2=CSc3cc(Cl)c(C)cc3S(=O)(=O)N2C(C)=O)cc1`, the GI50 is 19.8 µM and the TGI was 68.1 µM.
For `CC(=O)OC1COC(n2c(=S)n(-c3ccc(C)cc3)c(=O)c3ccccc32)C(OC(C)=O)C1OC(C)=O` (stereo not given), the TGI was greater than 100 µM.
In the case of `CC(C)(C)c1cc(C(=O)/C=C/c2c(Cl)cccc2Cl)cc(C(C)(C)C)c1O`, the TGI is greater than 100 µM.
In turn, `Nn1c(CCCCCCCCc2nnc(COc3ccc(Cl)cc3Cl)n2N)nnc1COc1ccc(Cl)cc1Cl` registered a TGI greater than 100 µM.
With `NC1CCC(Nc2nc(NCc3ccc(-c4ccco4)nc3)c3ncn(C4CCCC4)c3n2)CC1` (stereo not given), the GI50 was 0.0285 µM.
Regarding `CCOC(=O)C(Sc1ccccc1)c1c(OC)cc(=O)oc1/C=[N+](/[O-])c1ccc(N(C)C)cc1` (stereo not given), the TGI is greater than 100 µM.
The compound `NS(=O)(=O)c1ccccc1C(=O)N/N=C(\c1nc2ccc([N+](=O)[O-])cc2[nH]c1=O)C(O)c1ccc([N+](=O)[O-])cc1` (stereo not given) displayed a TGI greater than 100 µM.
Regarding `COC(=O)[C@@H](C)C[C@H](Cc1ccc(F)cc1)NC(=O)c1csc([C@@H](C[C@H](C(C)C)N(C)C(=O)[C@@H](NC(=O)[C@H]2CCCCN2C)C(C)C)OC(C)=O)n1`, the GI50 was 0.00585 µM and 0.00904 µM; the TGI was greater than 16.7 µM.
Consider `Clc1cccc(Cc2cn3cc(-c4ccccc4)nc3s2)c1Cl`, for which the GI50 was greater than 100 µM and the TGI was greater than 100 µM.
In the case of `COc1cc2nc(C)nc(N[C@H](C)c3cc(N)cc(C(F)(F)F)c3)c2cc1O[C@H]1CCOC1`, the GI50 was 11 µM and the TGI came to 23 µM.
In turn, `CCN(CC)CC(C(=O)Nc1c(C)cccc1C)/C(C)=N\NC(=O)C[N+](C)(C)C` (stereo not given) had a TGI greater than 100 µM.
Consider `CC[C@@]12CCCN3CC[C@]4(c5cccc(OC)c5N(C(C)=O)[C@@H]4CC1)[C@H]32`, for which the TGI was greater than 100 µM.
As for `O=C(CN1CCN(c2cc3c(cc2F)c(=O)c(C(=O)N/N=C/c2ccccc2O)cn3C2CC2)CC1)N/N=C\c1ccccc1O`, the GI50 was 0.363 µM and the TGI was greater than 100 µM.
For the compound `CCOc1ccccc1-n1c(CN2CCN(C(=O)COc3ccc(CNCCCCCCN4C5CCCC4CC(OC(=O)Nc4cc(C)ccc4OC)C5)cc3)CC2)nc2ccccc2c1=O` (stereo not given), the GI50 is 1.73 µM and the TGI is 3.46 µM.
Consider `COc1ccc2c(c1)C1(C=N2)CCN(C(C)=O)CC1`, for which the TGI is greater than 100 µM.
As for `N#Cc1cccc2c1Sc1ccccc1N2`, the TGI is greater than 100 µM.
In the case of `Nc1ccccc1-c1noc(=O)[nH]1`, the TGI was greater than 100 µM.
In the case of `O=C(Nc1ccc(I)cc1)c1cc([N+](=O)[O-])ccc1O`, the GI50 is 7.46 µM and the TGI was greater than 100 µM.
In the case of `COC1(c2ccc(Cl)cc2)SC=C(C)n2c1noc2=O` (stereo not given), the TGI was greater than 100 µM.
Same read-out and setting: in the case of `COC(=O)NC(Nc1ccccn1)(C(F)(F)F)C(F)(F)F` it was greater than 100 µM; in that of `CN(CC(=O)N1CC(CCl)c2ccc([N+](=O)[O-])cc21)CC(=O)N1CC(CCl)c2ccc([N+](=O)[O-])cc21` (stereo not given), greater than 100 µM; in that of `CC(=O)c1cccc(Nc2nc3ccccc3c3occc23)c1`, greater than 100 µM.
Compound `N/C(=N\N=C/c1ccc(O)c(O)c1O)NO` came in with a TGI of 42 µM.
`O=C(Nc1ccccc1)OCCN=C1c2ccccc2C(Br)C(Br)c2ccccc21` (stereo not given): the TGI is 24.6 µM.
In turn, `Cc1ccc(Nc2nc(=O)c3c4ccccc4n(C(=O)OC(C)(C)C)c3s2)cc1` registered a TGI greater than 100 µM.
The compound `Nc1ncc(Br)c(NCC2(CO)CCC2)n1` returned a TGI greater than 100 µM.
Turning to `O=c1n(CC2CO2)c(=O)n(CC2CO2)n1CC1CO1` (stereo not given), the GI50 was 24.8 µM and the TGI is greater than 96.3 µM.
With `COc1ccc(-c2cc(=O)c3ccc(O)cc3o2)c(OC)c1OC`, the TGI was greater than 100 µM.
The compound `CCCCCCNC(=O)C(C)C1CCC2(C)C=CC(=O)C(C)=C2C1O` (stereo not given) displayed a TGI greater than 100 µM.
`NC1c2c(Br)sc(N3CCCC3)c2C(=O)C1O` (stereo not given) came in with a TGI greater than 50 µM.
`CC1CN1P1(N2CC2C)=NP(N2CC2C)(N2CC2C)=NP(N2CC2C)(N2CC2C)=N1` (stereo not given) showed a TGI greater than 50 µM.
Same read-out and setting: the result for `CC(=O)C(CN(C(C)C)C(C)C)C(c1ccccc1)c1c(O)c2ccccc2oc1=O` (stereo not given) reads greater than 100 µM.
Regarding `O=C(CCl)N1c2ccccc2Oc2ccc3ccccc3c21`, the GI50 was 4.89 µM and the TGI is 10.9 µM.
In the case of `O=[N+]([O-])c1cccc2nc3ccccc3c(NCCCCNc3c4ccccc4nc4cccc([N+](=O)[O-])c34)c12`, the TGI came out at 0.456 µM.
`O[C@H]1[C@H]2c3cc4c(cc3CN3CCC(=C[C@@H]1O)[C@H]23)OCO4` gave a TGI of 9.52 µM.
Consider `O=[N+]([O-])c1cnc(Sc2ccncn2)s1`, for which the GI50 was 17.9 µM and the TGI amounted to 34.5 µM.
Take `C1=CC2(C=CC13O[C@H](C1CCCCC1)[C@@H](C1CCCCC1)O3)O[C@H](C1CCCCC1)[C@@H](C1CCCCC1)O2`: the TGI is greater than 50 µM.
`C[n+]1c2ccccc2c(NCC(=O)O)c2ccccc21` showed a TGI greater than 100 µM.
In the case of `CCOC(=O)c1c(SC(=O)c2ccc(C(C)(C)C)cc2)n(-c2ccccc2)c(=S)n(-c2ccccc2)c1=O`, the TGI is greater than 100 µM.
Consider `S=C1NCCN1`, for which the TGI is greater than 100 µM.
As to `CC(C)=CCCc1c(C)ccc2c1C(=O)C(=O)C(C(C)C)=C2`, the TGI is greater than 22 µM.
The same measure, in the same setting: the result for `CC(OC(=O)C(Cc1ccccc1)NC(=O)C(Cc1ccccc1)NC(=O)OC(C)(C)C)C(=O)OCc1ccccc1` (stereo not drawn) (Boc-Phe-Phe-[Lac]-OBn; configuration not given here) reads greater than 100 µM; that for `O=C(N/C(=C\c1cc(Cl)ccc1Cl)c1nc2[nH]c(=S)[nH]c(=O)c2[nH]1)c1ccccc1`, greater than 100 µM; that for `O=[S@@]1Nc2ccc(Br)cc2S1`, greater than 100 µM.
Turning to `NC(=O)C(=CNC(N)=S)C(N)=O`, the TGI is greater than 100 µM.
As to `O=C1N(C2CCCCC2)C(=O)N1C1CCCCC1`, the TGI is 29 µM.
Same read-out and setting: in the case of `O=C(O)C(Cc1ccccc1)N1C(=O)N/C(=C\c2ccc(F)cc2)C1=O` (stereo not given) it was 74.9 µM.
Turning to `CCc1ccc2c(c1)C(=O)c1c-2n(CCCBr)c(=O)c2cc([N+](=O)[O-])ccc12`, the GI50 was greater than 50 µM and the TGI was greater than 50 µM.
With `Cc1cc2nc(C(Cl)Cl)nc(-c3ccc(Cl)cc3)n2n1`, the GI50 is 0.603 µM and the TGI turned out to be 2.44 µM.
Consider `NC(=O)c1ccc(C(=O)Nc2ccc([As](=O)(O)O)cc2)cc1`, for which the TGI is greater than 100 µM.
In turn, `C=CCC1(O)CC(n2cc(C)c(=O)[nH]c2=O)OC1CO[Si](C)(C)C(C)(C)C` (stereo not given) showed a TGI greater than 100 µM.
In turn, `NC1CC(=O)c2cscc21` (stereo not given) yielded a TGI greater than 100 µM.
`C=Cc1nc2c(Cl)ncnc2n1Cc1ccccc1` came in with a TGI of 23.1 µM.
Regarding `N=C(N)c1ccc(/C=C/c2ccc(C(=N)N)cc2)cc1`, the TGI is greater than 100 µM.
`O=c1cc(-c2cccc(O)c2)[nH]c2cc3c(cc12)OCO3` gave a TGI greater than 100 µM.
